The other results are listed elsewhere or left out.
Key:
Assay in all cases: glycan array binding signal (z-score within array); higher = stronger binding
Conditions in all cases: glycan notation: IUPAC condensed, linker removed
[1] = target: Neu5Ac(a2-3)Gal(b1-3)GlcNAc(b1-6)GalNAc
Procedure, shortened: (§1)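 The Consortium for Functional Glycomics database supplied 3228 glycan arrays, of which those lacking an available protein sequence were dropped. The binding signal, a within-array Z-score, was averaged across arrays of the same protein sequence and across linkers. Negative scores can be read as non-binding.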

[2] = target: Neu5Ac(a2-3)Gal(b1-3)GlcNAc6S
Procedure, shortened: as §1

[3] = target: Neu5Ac(a2-3)Gal(b1-3)[Fuc(a1-4)]GlcNAc
Procedure, shortened: as §1

[4] = target: Neu5Ac(a2-3)Gal(b1-3)[Fuc(a1-4)]GlcNAc(b1-3)Gal(b1-3)[Fuc(a1-4)]GlcNAc
Procedure, shortened: as §1

[5] = target: Neu5Ac(a2-3)Gal(b1-3)[Fuc(a1-4)]GlcNAc(b1-3)Gal(b1-4)[Fuc(a1-3)]GlcNAc
Procedure, shortened: as §1

[6] = target: Neu5Ac(a2-3)Gal(b1-3)[GlcNAc(b1-6)]GalNAc
Procedure, shortened: as §1

[7] = target: Neu5Ac(a2-3)Gal(b1-3)[Neu5Ac(a2-6)]GalNAc
Procedure, shortened: as §1

[8] = target: Neu5Ac(a2-3)Gal(b1-3)[Neu5Ac(a2-6)]GlcNAc(b1-3)[Fuc(a1-3)[Gal(b1-4)]GlcNAc(b1-6)]Gal(b1-4)Glc
Procedure, shortened: as §1

[9] = target: Neu5Ac(a2-3)Gal(b1-3)]Neu5Ac(a2-3)Gal(b1-4)]GlcNAc
Procedure, shortened: as §1

Neu5Ac(a2-3)Gal(b1-4)Glc = target: Neu5Ac(a2-3)Gal(b1-4)Glc
Procedure, shortened: as §1

[10] = target: Neu5Ac(a2-3)Gal(b1-4)GlcNAc
Procedure, shortened: as §1

[11] = target: Neu5Ac(a2-3)Gal(b1-4)GlcNAc(b1-2)Man
Procedure, shortened: as §1

[12] = target: Neu5Ac(a2-3)Gal(b1-4)GlcNAc(b1-2)Man(a1-3)[GlcNAc(b1-4)][Neu5Ac(a2-3)Gal(b1-4)GlcNAc(b1-2)Man(a1-6)]Man(b1-4)GlcNAc(b1-4)GlcNAc
Procedure, shortened: as §1

[13] = target: Neu5Ac(a2-3)Gal(b1-4)GlcNAc(b1-2)Man(a1-3)[Neu5Ac(a2-3)Gal(b1-4)GlcNAc(b1-2)Man(a1-6)]Man(b1-4)GlcNAc(b1-4)GlcNAc
Procedure, shortened: as §1

[14] = target: Neu5Ac(a2-3)Gal(b1-4)GlcNAc(b1-2)Man(a1-3)[Neu5Ac(a2-3)Gal(b1-4)GlcNAc(b1-2)Man(a1-6)]Man(b1-4)GlcNAc(b1-4)[Fuc(a1-6)]GlcNAc
Procedure, shortened: as §1

[15] = target: Neu5Ac(a2-3)Gal(b1-4)GlcNAc(b1-2)Man(a1-3)[Neu5Ac(a2-6)Gal(b1-4)GlcNAc(b1-2)Man(a1-6)]Man(b1-4)GlcNAc(b1-4)GlcNAc
Procedure, shortened: as §1

[16] = target: Neu5Ac(a2-3)Gal(b1-4)GlcNAc(b1-2)[Neu5Ac(a2-3)Gal(b1-4)GlcNAc(b1-4)]Man(a1-3)[GlcNAc(b1-4)][Neu5Ac(a2-3)Gal(b1-4)GlcNAc(b1-2)[Neu5Ac(a2-3)Gal(b1-4)GlcNAc(b1-6)]Man(a1-6)]Man(b1-4)GlcNAc(b1-4)GlcNAc
Procedure, shortened: as §1

[17] = target: Neu5Ac(a2-3)Gal(b1-4)GlcNAc(b1-2)[Neu5Ac(a2-3)Gal(b1-4)GlcNAc(b1-4)]Man(a1-3)[GlcNAc(b1-4)][Neu5Ac(a2-3)Gal(b1-4)GlcNAc(b1-4)Man(a1-6)]Man(b1-4)GlcNAc(b1-4)GlcNAc
Procedure, shortened: as §1

[18] = target: Neu5Ac(a2-3)Gal(b1-4)GlcNAc(b1-2)[Neu5Ac(a2-3)Gal(b1-4)GlcNAc(b1-6)]Man(a1-6)[Neu5Ac(a2-3)Gal(b1-4)GlcNAc(b1-2)Man(a1-3)][GlcNAc(b1-4)]Man(b1-4)GlcNAc(b1-4)GlcNAc
Procedure, shortened: as §1

[19] = target: Neu5Ac(a2-3)Gal(b1-4)GlcNAc(b1-3)Gal
Procedure, shortened: as §1

[20] = target: Neu5Ac(a2-3)Gal(b1-4)GlcNAc(b1-3)Gal(b1-3)GlcNAc
Procedure, shortened: as §1

[21] = target: Neu5Ac(a2-3)Gal(b1-4)GlcNAc(b1-3)Gal(b1-4)GlcNAc
Procedure, shortened: as §1

[22] = target: Neu5Ac(a2-3)Gal(b1-4)GlcNAc(b1-3)Gal(b1-4)GlcNAc(b1-2)Man(a1-3)[Neu5Ac(a2-3)Gal(b1-4)GlcNAc(b1-3)Gal(b1-4)GlcNAc(b1-2)Man(a1-6)]Man(b1-4)GlcNAc(b1-4)GlcNAc
Procedure, shortened: as §1

[23] = target: Neu5Ac(a2-3)Gal(b1-4)GlcNAc(b1-3)Gal(b1-4)GlcNAc(b1-3)Gal(b1-4)GlcNAc
Procedure, shortened: as §1

[24] = target: Neu5Ac(a2-3)Gal(b1-4)GlcNAc(b1-3)Gal(b1-4)GlcNAc(b1-3)Gal(b1-4)GlcNAc(b1-2)Man(a1-3)[Neu5Ac(a2-3)Gal(b1-4)GlcNAc(b1-3)Gal(b1-4)GlcNAc(b1-3)Gal(b1-4)GlcNAc(b1-2)Man(a1-6)]GalNAc
Procedure, shortened: as §1

[25] = target: Neu5Ac(a2-3)Gal(b1-4)GlcNAc(b1-3)Gal(b1-4)GlcNAc(b1-3)GalNAc
Procedure, shortened: as §1

[26] = target: Neu5Ac(a2-3)Gal(b1-4)GlcNAc(b1-3)Gal(b1-4)GlcNAc(b1-3)[Neu5Ac(a2-3)Gal(b1-4)GlcNAc(b1-3)Gal(b1-4)GlcNAc(b1-6)]GalNAc
Procedure, shortened: as §1

[27] = target: Neu5Ac(a2-3)Gal(b1-4)GlcNAc(b1-3)Gal(b1-4)GlcNAc(b1-6)[Gal(b1-3)]GalNAc
Procedure, shortened: as §1

[28] = target: Neu5Ac(a2-3)Gal(b1-4)GlcNAc(b1-3)Gal(b1-4)[Fuc(a1-3)]GlcNAc
Procedure, shortened: as §1

[29] = target: Neu5Ac(a2-3)Gal(b1-4)GlcNAc(b1-3)GalNAc
Procedure, shortened: as §1

B1: a L Fucosidase (Streptosporangium roseum), D2B1P1_STRRD (protein)
chain: MRRKLLLVPAVGLLVIGSIFATQPVASADTPPVYEPTVESLNSHPVPQWFNDDKFGIFIHWGAYSVPAWGPRGSYAEWYGNYMNAGGSATNAHHKATYGQDFNYDAFLQQWKAEKFDPADWVKLFKDAGAKYFVLTSKHHEGMALWDSKSSGRDSVDLGPGRDLAKELFDAARKDEAKLKAGFYYSLYEWYNPAYTGRPATNPYTGAEIPYTGAPGGGDYVKDYMLPQMRELIDGYDPDIIWCDGQWEKPASYWNTAGVIADYYNKALNSGKEVAVANRCKIQSGNLDSPELDFQTPEYTVKPDIDPVKWESSRGIAHSYGYNQNEPEEDHLTSDQLVDSLVDIVSKNGNLLLDIGPKADGTIPEIQRQRLLDIGAWLKANGEAIYGTTYWNRAEEKGGPDDVRYTAKDATLYATALKWPGEQLTLGADLPVDHSTRITMLGSGARLSWSRDEQGRVVVNTPQEAGKHAYVFKIETPGVRSLLRTSSSLAKEIAPGRTISGELTVTNPGKRHTPATKLSLTVPQGWTATLGAPRVRPLGPGESVKVPISVSAPEGVAPAPYTLGLYQRTGRMGTTTALPLTVNRPNLSLGKPATQKSTGYDAPASRAVDGNTGGDWSAGSTTHTAEPEKQAWWQVDLGASARLDSVDVWNRLDCCADRLKDFWVMASDQPFTTDDLDQARTAPGVTAVHVGEQAGSPSKVKLPEGTRGRYVRIQLASPSNPLSLAEVQVRGSMARPNLSLGKPATQKSTGYDAPASRAVDGNTGGDWSAGSTTHTAEPEKQAWWQVDLGASARLDSVDVWNRLDCCADRLKDFWVMASDQPFTTDDLDQARTAPGVTAVHVGEQAGSPSKVKLPEGTRGRYVRIQLASPSNPLSLAEVQVRLEHHHHHHS
Question: With B1 as the binder, how does the “glycan array binding signal (z-score)” value [1] read?
Answer: Its value is -0.493.

Question: What about the “glycan array binding signal (z-score)” value [2] of the same binder?
Answer: The value was -0.365.

Question: And the “glycan array binding signal (z-score)” value [3]?
Answer: The value was -0.014.

Question: What about the “glycan array binding signal (z-score)” value [4] of the same binder?
Answer: The value was -0.033.

Question: And the “glycan array binding signal (z-score)” value [5]?
Answer: The value was -0.118.

Question: What about the “glycan array binding signal (z-score)” value [6] of the same binder?
Answer: The value was 0.619.

Question: What about the “glycan array binding signal (z-score)” value [7] of the same binder?
Answer: The value was -0.108.

Question: What about the “glycan array binding signal (z-score)” value [8] of the same binder?
Answer: Its value is -0.531.

Question: What about the “glycan array binding signal (z-score)” value [9] of the same binder?
Answer: Its value is -0.363.

Question: And the “glycan array binding signal (z-score)” value (Neu5Ac(a2-3)Gal(b1-4)Glc)?
Answer: The value was -0.388.

Question: And the “glycan array binding signal (z-score)” value [10]?
Answer: The value was -0.407.

Question: What about the “glycan array binding signal (z-score)” value [11] of the same binder?
Answer: Its value is 1.75.

Question: What about the “glycan array binding signal (z-score)” value [12] of the same binder?
Answer: Its value is -0.463.

Question: And the “glycan array binding signal (z-score)” value [13]?
Answer: Its value is -0.59.

Question: And the “glycan array binding signal (z-score)” value [14]?
Answer: The value was -0.425.

Question: And the “glycan array binding signal (z-score)” value [15]?
Answer: The value was -0.249.

Question: And the “glycan array binding signal (z-score)” value [16]?
Answer: Its value is -0.534.

Question: What about the “glycan array binding signal (z-score)” value [17] of the same binder?
Answer: Its value is -0.283.

Question: And the “glycan array binding signal (z-score)” value [18]?
Answer: The value was -0.488.

Question: What about the “glycan array binding signal (z-score)” value [19] of the same binder?
Answer: The value was -0.52.

Question: And the “glycan array binding signal (z-score)” value [20]?
Answer: The value was -0.34.

Question: What about the “glycan array binding signal (z-score)” value [21] of the same binder?
Answer: The value was -0.428.

Question: And the “glycan array binding signal (z-score)” value [22]?
Answer: Its value is 0.456.

Question: And the “glycan array binding signal (z-score)” value [23]?
Answer: The value was 0.296.

Question: And the “glycan array binding signal (z-score)” value [24]?
Answer: Its value is 0.804.

Question: What about the “glycan array binding signal (z-score)” value [25] of the same binder?
Answer: The value was 0.074.

Question: And the “glycan array binding signal (z-score)” value [26]?
Answer: The value was 0.022.

Question: And the “glycan array binding signal (z-score)” value [27]?
Answer: The value was -0.194.

Question: What about the “glycan array binding signal (z-score)” value [28] of the same binder?
Answer: Its value is -0.411.

Question: What about the “glycan array binding signal (z-score)” value [29] of the same binder?
Answer: Its value is -0.02.

Source: the supplement of paper PMC8728848
